In all, about 350,000 compounds went through this assay and about 31,000 (8.9%) were called active. Inconclusive results, whose numbers are uncertain, are shown with a selection of clear calls. Calls come from the whole dose curve; as a rule, active = well fitted inhibition curve with a large enough effect; inconclusive = small, poorly fitted or top-dose-only effect; inactive = no such curve, though single readings can be large or run the other way. Potencies beside an inconclusive call are fits to weak or partial responses and may not hold up.
The compounds below were run against Histone-lysine N-methyltransferase EHMT2 (Homo sapiens) (UniProt Q96KQ7) (assay: qHTS Assay for Inhibitors of Histone Lysine Methyltransferase G9a). Conditions: G9a H3K9 monomethylation, AlphaScreen, 2 h; activity, negative = inhibition: at 59 µM (top of the series) unless noted.
Sequence of UniProt Q96KQ7 (Q96KQ7 whole entry, looked up): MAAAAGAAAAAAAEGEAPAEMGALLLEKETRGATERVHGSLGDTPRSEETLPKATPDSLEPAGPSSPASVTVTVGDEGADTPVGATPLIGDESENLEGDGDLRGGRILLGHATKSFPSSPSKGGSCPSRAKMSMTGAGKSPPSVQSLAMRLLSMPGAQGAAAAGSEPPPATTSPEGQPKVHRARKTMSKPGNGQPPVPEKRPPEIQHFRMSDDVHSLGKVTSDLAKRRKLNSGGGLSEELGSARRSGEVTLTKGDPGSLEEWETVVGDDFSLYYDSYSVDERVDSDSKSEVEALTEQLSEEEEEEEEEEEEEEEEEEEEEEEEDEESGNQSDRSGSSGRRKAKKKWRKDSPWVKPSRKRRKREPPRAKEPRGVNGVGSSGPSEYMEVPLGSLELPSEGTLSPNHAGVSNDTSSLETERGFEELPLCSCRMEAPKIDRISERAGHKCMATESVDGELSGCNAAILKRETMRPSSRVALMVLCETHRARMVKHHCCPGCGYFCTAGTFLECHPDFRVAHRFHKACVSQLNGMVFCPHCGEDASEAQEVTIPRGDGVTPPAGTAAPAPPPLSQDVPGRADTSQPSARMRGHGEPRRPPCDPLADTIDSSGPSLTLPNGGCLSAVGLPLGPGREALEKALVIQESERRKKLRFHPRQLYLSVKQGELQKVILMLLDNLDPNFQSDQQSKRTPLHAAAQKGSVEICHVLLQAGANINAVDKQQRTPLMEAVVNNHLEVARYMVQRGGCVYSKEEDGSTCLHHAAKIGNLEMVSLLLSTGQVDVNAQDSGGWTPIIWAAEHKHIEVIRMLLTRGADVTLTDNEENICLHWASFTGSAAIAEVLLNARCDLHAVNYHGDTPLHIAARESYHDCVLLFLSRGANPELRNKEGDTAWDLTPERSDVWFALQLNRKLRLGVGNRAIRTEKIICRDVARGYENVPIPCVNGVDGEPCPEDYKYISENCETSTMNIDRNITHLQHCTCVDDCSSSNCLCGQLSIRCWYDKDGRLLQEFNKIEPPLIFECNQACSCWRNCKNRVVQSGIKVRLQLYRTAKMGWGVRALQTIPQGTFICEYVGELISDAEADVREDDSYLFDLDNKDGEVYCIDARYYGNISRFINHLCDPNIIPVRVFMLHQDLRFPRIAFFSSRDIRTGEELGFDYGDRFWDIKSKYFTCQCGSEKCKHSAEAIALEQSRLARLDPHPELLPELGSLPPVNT
Method in brief: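 Enzyme 20 nM + cpd, 15 min RT; add b-H3K9 pep 500 nM / SAM 20 uM; 2 h RT; anti-H3K9me1 Ab 0.5 ug/mL + SA donor / anti-rabbit acceptor beads 20 ug/mL each, 10 min; AlphaScreen read.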
With `O=C(O)CN1C(=O)c2ccc(C(=O)c3ccccc3)cc2C1=O` the Potency was inconclusive: 79.4 µM [inhibitor, partial curve, poor fit].
With `CSc1nc(=NC(C)=O)ss1` the Potency was inconclusive: 3.16 µM [inhibitor, partial curve, poor fit].
For `CCCCn1c(-c2ccco2)n[nH]c1=S`, the Potency was active: 5.01 µM.
In the case of `COC(=O)Cc1c(C)nc2nc(NCc3cccc([N+](=O)[O-])c3)[nH]n2c1=O`, the Potency is reported as inconclusive: 22.4 µM [inhibitor, single point].
With `O=S(=O)(c1ccc(Br)cc1)N1CCCc2ccccc21` the “activity, negative = inhibition” value was inactive: 217% [at 102 µM].
For `Cn1cccc1CC(=O)NNC(=S)Nc1ccc(Cl)cc1`, the Potency was inconclusive: 6.31 µM [inhibitor, single point].
`COc1cccc(-c2ccc(NC(=O)C3CCCN(Cc4cnn(C)c4C)C3)cc2)c1` (stereo not drawn) was tested, and the Potency was inconclusive: 79.4 µM [inhibitor, single point].
`Cc1ccc(NS(=O)(=O)N(C)C)cc1` was tested, and the “activity, negative = inhibition” value was inactive: 15.9%.
For `Cc1cc(C)c(S(=O)(=O)/N=C2\C=CC(=O)C(Cl)=C2)c(C)c1`, the Potency was active: 7.94 µM.
For `Cc1ccc(-c2c(C#N)c(N)nc3c2CCCCC3)o1`, the Potency was active: 79.4 µM.
For `Cc1ccc(C(=O)N2CCN(Cc3ccc4c(c3)OCO4)CC2)o1`, the “activity, negative = inhibition” value was inactive: 7%.
`CCOc1ccccc1N(CC)C(=O)c1noc2c1COc1ccc(C)cc1-2` was tested, and the “activity, negative = inhibition” value was inactive: 9.23%.
`O=C(NCC(c1ccc2c(c1)OCO2)N1CCOCC1)c1c(F)cccc1F` (stereo not drawn) was tested, and the “activity, negative = inhibition” value was inactive: -7.45%.
In the case of `COc1ccc(-n2ccnc(NCc3ccc(C)cc3)c2=O)cc1OC`, the “activity, negative = inhibition” value is reported as inactive: -25.5%.
With `Cc1cccc(N2CCN(c3nc4ccc(C)cc4n4cnnc34)CC2C)c1` (stereo not drawn) the Potency was inconclusive: 20 µM [inhibitor, partial curve, poor fit].
`COc1ccc(N2CCN(C(=O)CSc3nc4cc(OC)c(OC)cc4cc3C#N)CC2)cc1` was tested, and the Potency was inconclusive: 7.08 µM [inhibitor, single point].
In the case of `CCN(C(=O)C1CCN(c2ncnc3c2nc2n3CCCCC2)CC1)c1cccc(Cl)c1`, the “activity, negative = inhibition” value is reported as inactive: -3.36%.
`O=C(Nc1cccc(C(F)(F)F)c1)c1n[nH]c(Cn2cncn2)n1` was tested, and the Potency was inconclusive: 35.5 µM [inhibitor, full curve, poor fit].
`O=C(N/N=C/c1c(O)ccc2ccccc12)c1ccc(Br)o1` was tested, and the Potency was inconclusive: 63.1 µM [inhibitor, single point].
`Cc1cccc(C(=O)Nc2ccc(C(=O)OCc3cc(=O)n4nc(CC(C)C)sc4n3)cc2)c1` was tested, and the “activity, negative = inhibition” value was inactive: -1.41%.
In the case of `O=C(Nc1ccc(Cl)cc1Cl)C1CCC(=O)N1Cc1ccccc1Cl` (stereo not drawn), the Potency is reported as inconclusive: 100 µM [inhibitor, single point].
For `COc1ccc(NC(=O)/C=C\C(=O)N(c2ccc(C(C)C)cc2)C(C(=O)NCc2ccco2)c2ccc(F)cc2)cc1` (stereo not drawn), the Potency was inconclusive: 8.91 µM [inhibitor, partial curve, poor fit].
`CCn1c(C)c(C)c2cc(C(=O)NCc3cccc(C)c3)ccc21` was tested, and the Potency was inconclusive: 22.4 µM [inhibitor, single point].
In the case of `Cc1cc(-c2nnc(SCC(=O)Nc3ccc(C)c(C)c3)n2N)n[nH]1`, the “activity, negative = inhibition” value is reported as inactive: -15.7% [at 102 µM].
For `O=C(NNc1ccc(O)cc1)c1ccc(Br)cc1`, the Potency was active: 1.58 µM.
In the case of `COCCCNC(=O)/C=C1\Sc2ccccc2N(Cc2ccccc2F)C1=O`, the “activity, negative = inhibition” value is reported as inactive: -7.07%.
For `O=C(O)c1ccc2c(c1)C(=O)N([C@H](Cc1ccc(F)cc1)C(=O)O)C2=O`, the activity, negative = inhibition was inactive: -4.45% [at 12.7 µM].
For `O=C(NCc1ccco1)C1CCN(c2nc3ccccc3n2Cc2ccccc2F)CC1`, the Potency was inconclusive: 39.8 µM [inhibitor, single point].
In the case of `CCOc1cccc(NC(=O)/C(C#N)=C/c2cccnc2)c1`, the “activity, negative = inhibition” value is reported as inactive: -4.98%.
For `CCOC(=O)c1c(NC(=O)CSc2nnc(C)s2)sc2c1CCN(C)C2`, the Potency was active: 4.47 µM.
In the case of `O=C1c2ccccc2C(=O)c2c1oc(C(F)(F)F)c2C(=O)c1ccccc1`, the Potency is reported as active: 3.98 µM.
For `CCc1cccc(C)c1NC(=S)NCc1ccc2[nH]c(C)cc2c1`, the Potency was inconclusive: 50.1 µM [inhibitor, partial curve, poor fit].
`CCOC(=O)c1nn(-c2ccccc2)c(=O)c2c(N)scc12` was tested, and the Potency was active: 1.58 µM.
`O=C(NC1CC1)C1CCN(S(=O)(=O)c2cc([N+](=O)[O-])ccc2Cl)CC1` was tested, and the Potency was inconclusive: 35.5 µM [inhibitor, single point].
For `CC1CC(=O)NN1C(=O)c1ccccc1` (stereo not drawn), the Potency was active: 79.4 µM.
For `O=C(c1cccnc1)N1CCN(Cc2ccc3c(c2)OCO3)CC1`, the Potency was inconclusive: 2.51 µM [inhibitor, partial curve, poor fit].
With `Cn1nnc(NC(=S)NC(=O)c2ccc(-c3ccc(Br)cc3)o2)n1` the Potency was inconclusive: 89.1 µM [inhibitor, partial curve, poor fit].
`O=C(NCC1CCCO1)c1cccc(S(=O)(=O)Nc2ccc(SC(F)F)cc2)c1` (stereo not drawn) was tested, and the Potency was inconclusive: 15.8 µM [inhibitor, single point].
In the case of `COc1ccc(C2=Nn3c(nnc3-c3ccccc3)SC2)cc1OC`, the Potency is reported as inconclusive: 89.1 µM [inhibitor, single point].
With `Cc1ccc(NC(=O)CN(C)C(=O)c2cccc(-n3cccc3)c2)cc1` the Potency was active: 25.1 µM.
In the case of `COc1ccc(N2CCN(C(=O)c3ccc(C)cc3Cl)CC2)cc1`, the Potency is reported as inconclusive: 22.4 µM [inhibitor, single point].
With `O=C(Nc1ccc2nc(-c3cccnc3)[nH]c2c1)c1ccccc1F` the Potency was inconclusive: 89.1 µM [inhibitor, partial curve, poor fit].
With `CN1CCN(C(=O)/C(=C\c2cccs2)NC(=O)c2ccccc2)CC1` the Potency was inconclusive: 89.1 µM [inhibitor, single point].
In the case of `Cc1cccc(C(=O)NCC(=O)OCc2cc(=O)n3nc(C4CC4)sc3n2)c1`, the “activity, negative = inhibition” value is reported as inactive: 16.6%.
In the case of `O=C(NC(=S)Nc1cnc2ccccc2c1)c1ccccc1`, the activity, negative = inhibition is reported as inconclusive: -83% [inhibitor].
In the case of `CCOC(=O)C1CCCN(S(=O)(=O)c2csc(C(N)=O)c2)C1` (stereo not drawn), the “activity, negative = inhibition” value is reported as inactive: -11.7%.
For `CCOc1ccc(-c2cc3nc(C4CCN(C(=O)OC(C)(C)C)CC4)c(C(=O)Nc4ccc(C)cc4C)cn3n2)cc1`, the “activity, negative = inhibition” value was inactive: -1.8%.
`COc1ccccc1N1CCN(C(=O)c2cc3ccc4ccc(C)[nH]c4c3n2)CC1` was tested, and the Potency was inconclusive: 22.4 µM [inhibitor, partial curve, poor fit].
In the case of `CN(C/C(O)=C(\C#N)c1ccccc1)C1CCCCC1`, the Potency is reported as inconclusive: 3.16 µM [inhibitor, single point].
With `O=C(CC1SC(=NC2CCCCC2)NC1=O)Nc1ccccc1` (stereo not drawn) the Potency was inconclusive: 25.1 µM [inhibitor, single point].
For `CC(C)c1nc(N2CCN(C(=O)c3ccccc3)CC2)c(C#N)c2c1COC(C)(C)C2`, the Potency was inconclusive: 8.91 µM [inhibitor, partial curve, poor fit].
In the case of `CC1=CS(=O)(=O)CC1Sc1nc(C)n[nH]1` (stereo not drawn), the Potency is reported as active: 50.1 µM.
In the case of `O=C(NCCc1c[nH]c2ccccc12)C(=O)NCC1OCCN1S(=O)(=O)c1ccccc1` (stereo not drawn), the Potency is reported as inconclusive: 70.8 µM [inhibitor, partial curve, poor fit].
With `CCOc1ccc(Cl)cc1S(=O)(=O)N1CCC(C(=O)NCc2ccncc2)CC1` the “activity, negative = inhibition” value was inactive: 24% [at 102 µM].
In the case of `Cc1ccccc1/C=C/C(=O)NCC(=O)N1CCC(N(C)C2CCCCC2C)CC1` (stereo not drawn), the “activity, negative = inhibition” value is reported as inactive: -11% [at 102 µM].
For `Cc1ccc(Cl)cc1-n1c(=O)cc(N2CCN(C(=O)c3ccco3)CC2)[nH]c1=O`, the Potency was inconclusive: 39.8 µM [inhibitor, single point].
For `CN(O)/C=c1/ccc2c(n1)C(=O)C=CC=2`, the Potency was active: 10 µM.
`Cc1ccc(Cl)cc1NS(=O)(=O)c1cc2c3c(c1)CC(=O)N3CCC2` was tested, and the “activity, negative = inhibition” value was inactive: 6.32%.
`Cc1c2cnn(-c3ccccc3)c(=O)c2c(C)n1CC(=O)NCc1ccccc1` was tested, and the “activity, negative = inhibition” value was inactive: -3.36%.
In the case of `CCOc1ccc(S(=O)(=O)Nc2ccc(-c3ccc(OC)nn3)cc2)cc1`, the “activity, negative = inhibition” value is reported as inactive: -37.2%.
`CC1(C)CC2CC(C)(CN2C(=O)c2cccs2)C1` (stereo not drawn) was tested, and the activity, negative = inhibition was inconclusive: -79.2% [inhibitor].
`CC1=C(C(=O)Nc2ccccc2)C(c2ccc(C)o2)n2c(s/c(=C\c3ccco3)c2=O)=N1` (stereo not drawn) was tested, and the activity, negative = inhibition was inconclusive: -63.4% [inhibitor].
With `CC1(C)C(O)C=C[C@@]2(C)C1CC(=O)O[C@@]1(C)C3=CC(=O)OC(c4ccoc4)[C@]3(C)CCC21` (stereo partly drawn) the activity, negative = inhibition was inactive: -16.7% [at 2.33 µM].
For `Cc1ccccc1Nc1c(-c2ccncc2)nc2ccc(Cl)cn12`, the Potency was “inactive”.
In the case of `COc1ccc2c(c1)nc(SCC(=O)c1cccs1)n2C`, the Potency is reported as active: 44.7 µM.
With `CCOC(=O)CC(=O)CSc1nc(-c2cccnc2)ccc1C#N` the Potency was inconclusive: 12.6 µM [inhibitor, partial curve, poor fit].
For `COc1cccc(CNC(=O)c2ccc(NC(=O)N3CC(C)Sc4ccccc43)cc2)c1` (stereo not drawn), the “activity, negative = inhibition” value was inactive: 7.97%.
With `COc1cccc(CN2CC(C(=O)NCCOc3ccccc3F)CCC2=O)c1` (stereo not drawn) the “activity, negative = inhibition” value was inactive: -0.692% [at 102 µM].
With `O=C(Cn1nnc(-c2ccccc2-n2cnnn2)n1)c1ccccc1` the activity, negative = inhibition was inactive: -18.2% [at 12.7 µM].
`CC1(C)CC(=O)CC2(C1)NCC(c1ccccc1)c1c2[nH]c2ccccc12` (stereo not drawn) was tested, and the Potency was inconclusive: 50.1 µM [inhibitor, partial curve, poor fit].
`O=C(COc1cccc2ccccc12)N1CCN(c2ccccc2)CC1` was tested, and the Potency was inconclusive: 89.1 µM [inhibitor, single point].
For `CCc1nc(Nc2cc(OC)ccc2OC)c2oc3ccccc3c2n1`, the Potency was inconclusive: 89.1 µM [inhibitor, single point].
`O=C(Nc1ccc(Cl)cc1)Nc1ccc(N2CCCC2)c(S(=O)(=O)Nc2ccccc2Cl)c1` was tested, and the Potency was inconclusive: 35.5 µM [inhibitor, single point].

— PubChem BioAssay AID504332 (National Center for Advancing Translational Sciences (NCATS), 2011)
% is set by controls: 0 for no effect and ±100 for the full control effect; potency is the fitted concentration of half-maximal effect; tags give direction and shape of the fitted curve.
Note: nearly all actives have a fitted effect of over 75% in size.
